# Data reported in PubChem BioAssay AID1508623 (National Center for Advancing Translational Sciences (NCATS), 2021).
# The whole screen tested about 48,000 compounds, of which about 450 (0.94%) were called active. Not shown: some 19% with an inconclusive outcome. Calls come from the whole dose curve; as a rule, active = well fitted inhibition curve with a large enough effect; inconclusive = small, poorly fitted or top-dose-only effect; inactive = no such curve, though single readings can be large or run the other way. This is one part of the list.
# Experiment: Primary qHTS for Identification of Small Molecule Inhibitors of Huntingtin Promoter Activity; note: nearly all actives have a fitted effect of over 50% in size
# Details: HEK293 HTT promoter firefly luciferase reporter (activity 0% = vehicle and -100% = no light), 24 h; series mostly up to 57.5 µM; activity change, negative = inhibition: at the top concentration
# Procedure, shortened: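 HEK293 Fluc reporter, 2,500 cells/well, 24 h pre-culture; cpds up to 57.5 uM final, 24 h 37 degrees C; Dual-Glo, 10 min RT; normalized vehicle = 0%, zero RLU = -100%.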
row,SMILES,"activity change, negative = inhibition"
1,CN(CCCN1c2ccccc2CCc2ccccc21)CC(=O)c1ccc(Cl)cc1,inactive: 0.327%
2,CCOC(=O)c1ccc(NC(=O)CSc2nc(-c3ccc(F)cc3)cc(C(F)(F)F)c2C#N)cc1,inactive: -3.77%
3,Cc1ccc(NC(=O)Nc2c(C)n(C)n(-c3ccccc3)c2=O)c(Cl)c1,inactive: -29.5%
4,CCOc1ccc(NC(=O)C2=C(C)C(=O)OC23CCC(C)CC3)cc1 (configuration not stated),inactive: -7.89%
5,CC(C)c1ccc(NC(=O)Cc2ccc(NC(=O)N3CCCCc4ccccc43)cc2)cc1,inactive: -20.2%
6,COc1ccc(C2CC(=O)c3cc(-c4nc(-c5ccc(C)cc5)cs4)c(=O)[nH]c3C2)cc1 (configuration not stated),inactive: -8.7%
7,CCC1CN(C(=O)NCc2ccc(F)cc2)c2cc(Cl)ccc2O1 (configuration not stated),inactive: -9.89%
8,CCOc1cccc(CNC(=O)c2ccc(N3CCCC3)c(NC(=O)Nc3ccccc3CC)c2)c1,inactive: -11.3%
9,CCOC(=O)c1c(C)[nH]c(C)c1S(=O)(=O)N(C)CC(=O)NCc1ccc(C)cc1,inactive: -32.9%
10,COc1ccc(NC(=O)C2CCCN(S(=O)(=O)c3c(C)[nH]c(=O)[nH]c3=O)C2)cc1 (configuration not stated),inactive: -12.8%
11,CCn1cc(S(=O)(=O)c2ccc(OC)cc2)c(=O)c2cc(F)c(N3CCCCCC3)cc21,inactive: 0.566%
12,Nc1nc(Nc2cccc(Cl)c2)sc1C(=O)c1ccc(F)cc1,inactive: -23.5%
13,COc1ccc(-c2nn(-c3ccc(C)c(Cl)c3)c3c2cnc2cc(OC)c(OC)cc23)cc1,inactive: 5.04%
14,CCOc1ccc(/C=C/C(=O)Nc2sc3c(c2C(=O)OC)CCCC3)cc1,inactive: 16.5%
15,CCC(Oc1ccccc1)C(=O)Nc1cc(-c2ccccc2F)nn1-c1ccccc1 (configuration not stated),inactive: -32.2%
16,CCN(CC)S(=O)(=O)c1ccc2c(c1)N(CC(=O)NCCc1ccccc1)C(=O)CO2,inactive: -6.61%
17,CCOc1ccc2nc(N3CCCC(C(=O)Nc4ccc(CC)cc4)C3)sc2c1 (configuration not stated),inactive: 30.8%
18,CCc1ccc2oc(-c3cccc(NC(=O)COc4ccccc4Cl)c3)nc2c1,inactive: 32.6%
19,CCOc1ccc(NC(=O)CSc2nc3ccsc3c(=O)n2CC)cc1,inactive: -27.7%
20,CCN(CC)C(=O)c1ccc2c(c1)N(Cc1ccccc1F)C(=O)c1ccccc1S2=O (configuration not stated),inactive: -1.87%
21,Cc1ccc(NC(=O)Cn2c(=O)nc(-c3ccccc3)c3ccccc32)cc1,inactive: -13.2%
22,CCCCOc1ccc(CNC(=O)c2cnc3sc(N4CCCCCC4)nn3c2=O)cc1,inactive: 1.67%
23,CC(=O)OCCN1C(=O)c2c(C)nc3ccc(S(=O)(=O)N4CCOCC4)cc3c2C1=O,inactive: 2.82%
24,Cc1cccc(C(=O)n2nc(-c3cccnc3)nc2NCc2ccc(F)cc2)c1,inactive: -36.6%

row,SMILES,"activity change, negative = inhibition"
1,Cc1c(C(=O)NCc2cccc(F)c2)oc2c1-c1[nH]ncc1CC2,inactive: -8.23%
2,CC(C)CCNC(=O)c1cc(-c2ccc(Br)s2)nc2ccccc12,inactive: 8.35%
3,Cn1c(=O)[nH]c(=O)c2c1nc(CN1CCN(c3ccccc3)CC1)n2Cc1c(F)cccc1Cl,inactive: -13.5%
4,Cc1cccc(NC(=O)c2ccc3[nH]c(C)cc(=O)c3c2)c1,inactive: 17.6%
5,CCC(=O)N1CCc2cc(S(=O)(=O)NC(Cc3ccccc3)C(=O)NCc3ccccc3OC)ccc21 (configuration not stated),inactive: -16.1%
6,CC(C)(C)c1ccc(C(=O)Nc2ccc(NC(=O)c3ccc(Cl)c(Cl)c3)cc2)cc1,inactive: -20.7% [at 11.5 µM]
7,COc1cccc(NC(=O)Nc2ccc3snnc3c2)c1,inactive: -7.75%
8,COc1ccccc1CNc1nc2ccccc2c2nc(-c3cccc(C)c3)nn12,inactive: 25.7%
9,Cc1cccc(CCNC(=O)c2cc3c(=O)[nH]c4ccc(C)cc4c3s2)c1,inactive: -3.38%
10,Clc1ccc2c(c1)CCc1cccnc1C2=C1CCNCC1,inactive: -42.3%
11,COc1cc([N+](=O)[O-])ccc1NC(=O)N1CCC2(CC1)Nc1ccccc1-n1cccc12,inactive: -6.89%
12,CCn1cc(C(=O)NCCN(CC(C)C)CC(C)C)c(=O)c2cc(S(=O)(=O)N(C)C3CCCCC3)ccc21,inactive: -7.67%
13,COc1ccc(-c2nc3sc(CCNC(=O)C(=O)Nc4cc(F)ccc4F)c(C)n3n2)cc1,inactive: -9.68%
14,CCOCCCn1c(SCC(=O)NCc2ccccc2)nc2c(sc3ccccc32)c1=O,inactive: -5.3%
15,CCCCOc1ccccc1Cn1c(=O)sc2ccccc21,inactive: -12.1%
16,Cc1cccc(NC(=O)CN(C)S(=O)(=O)c2ccc3c(c2)CCC(=O)N3)c1C,inactive: -18.7%
17,CCOc1ccc(C(=O)Nc2cccc(NC(=O)c3ccc(Cl)cc3Cl)c2)cc1,inactive: -4.98%
18,O=C1NCC2(CCN(CCc3ccccc3)CC2)O1,inactive: 9.92%
19,Cc1ccc(Nc2nc3ccccc3nc2-n2nc(C)cc2C)c(Cl)c1,inactive: -10.9%
20,CSc1ccc(CNC(=O)c2sc3ncnc(N(C)C4CCCCC4)c3c2C)cc1,inactive: -29.3%
21,Cc1cccc(C(=O)N2c3ncnn3C3(CCCCC3)[C@@H]3CCCC[C@@H]32)c1,inactive: -35.6%
22,CCOC(=O)c1cccc(NS(=O)(=O)c2ccc(-c3coc(C)n3)cc2)c1,inactive: -21.1%
23,COc1cc2c(cc1NC(=O)COc1ccc(Br)cc1)oc1ccccc12,inactive: 12% [at 11.5 µM]
